B1: GACGACC (DNA:RNA)
RNA: GGGAGACCGGAAUUCAGAUUGUCCGACGACCUUAAAUCCCGUCGUAGCCACCA
DNA 1: CAATCTGAATTCCGGTCTCCC
DNA 2: TGGTGGCTACGACGGGATT
B2: GAUUCAC (DNA:RNA)
RNA: B1 RNA with C27U, G28U, A29C, C30A
DNA 1: CAATCTGAATTCCGGTCTCCC
DNA 2: TGGTGGCTACGACGGGATT
B3: CACGUCC (DNA:RNA)
RNA: B1 RNA with G25C, A29U
DNA 1: CAATCTGAATTCCGGTCTCCC
DNA 2: TGGTGGCTACGACGGGATT
B4: CAGCCUC (DNA:RNA)
RNA: B1 RNA with G25C, C27G, G28C, A29C, C30U
DNA 1: CAATCTGAATTCCGGTCTCCC
DNA 2: TGGTGGCTACGACGGGATT
B5: CUUAGGG (DNA:RNA)
RNA: GGGAGACCGGAAUUCAGAUUGUCCCUUAGGGUUAAAUCCCGUCGUAGCCACCA
DNA 1: CAATCTGAATTCCGGTCTCCC
DNA 2: TGGTGGCTACGACGGGATT
B6: GAAAUUU (DNA:RNA)
RNA: B1 RNA with C27A, G28A, A29U, C30U, C31U
DNA 1: CAATCTGAATTCCGGTCTCCC
DNA 2: TGGTGGCTACGACGGGATT
B7: GAUUGUU (DNA:RNA)
RNA: B5 RNA with C25G, U26A, A28U, G30U, G31U
DNA 1: CAATCTGAATTCCGGTCTCCC
DNA 2: TGGTGGCTACGACGGGATT
B8: CGGGUUA (DNA:RNA)
RNA: B5 RNA with U26G, U27G, A28G, G29U, G30U, G31A
DNA 1: CAATCTGAATTCCGGTCTCCC
DNA 2: TGGTGGCTACGACGGGATT
B9: CAACCUU (DNA:RNA)
RNA: B5 RNA with U26A, U27A, A28C, G29C, G30U, G31U
DNA 1: CAATCTGAATTCCGGTCTCCC
DNA 2: TGGTGGCTACGACGGGATT
B10: GACCUGA (DNA:RNA)
RNA: B1 RNA with G28C, A29U, C30G, C31A
DNA 1: CAATCTGAATTCCGGTCTCCC
DNA 2: TGGTGGCTACGACGGGATT
B11: CAUGCGC (DNA:RNA)
RNA: B5 RNA with U26A, A28G, G29C, G31C
DNA 1: CAATCTGAATTCCGGTCTCCC
DNA 2: TGGTGGCTACGACGGGATT
B12: GUGGGCC (DNA:RNA)
RNA: B1 RNA with A26U, C27G, A29G
DNA 1: CAATCTGAATTCCGGTCTCCC
DNA 2: TGGTGGCTACGACGGGATT
B13: CCGGCCG (DNA:RNA)
RNA: B5 RNA with U26C, U27G, A28G, G29C, G30C
DNA 1: CAATCTGAATTCCGGTCTCCC
DNA 2: TGGTGGCTACGACGGGATT
B14: GCUUAUC (DNA:RNA)
RNA: B1 RNA with A26C, C27U, G28U, C30U
DNA 1: CAATCTGAATTCCGGTCTCCC
DNA 2: TGGTGGCTACGACGGGATT
B15: AUCUCUU (DNA:RNA)
RNA: B5 RNA with C25A, U27C, A28U, G29C, G30U, G31U
DNA 1: CAATCTGAATTCCGGTCTCCC
DNA 2: TGGTGGCTACGACGGGATT
B16: UUCCCAA (DNA:RNA)
RNA: B5 RNA with C25U, U27C, A28C, G29C, G30A, G31A
DNA 1: CAATCTGAATTCCGGTCTCCC
DNA 2: TGGTGGCTACGACGGGATT
B17: UUCUUGA (DNA:RNA)
RNA: B5 RNA with C25U, U27C, A28U, G29U, G31A
DNA 1: CAATCTGAATTCCGGTCTCCC
DNA 2: TGGTGGCTACGACGGGATT
B18: CCCGGGG (DNA:RNA)
RNA: B5 RNA with U26C, U27C, A28G
DNA 1: CAATCTGAATTCCGGTCTCCC
DNA 2: TGGTGGCTACGACGGGATT
B19: AGUCCCA (DNA:RNA)
RNA: B5 RNA with C25A, U26G, A28C, G29C, G30C, G31A
DNA 1: CAATCTGAATTCCGGTCTCCC
DNA 2: TGGTGGCTACGACGGGATT
B20: UGGGUAG (DNA:RNA)
RNA: B5 RNA with C25U, U26G, U27G, A28G, G29U, G30A
DNA 1: CAATCTGAATTCCGGTCTCCC
DNA 2: TGGTGGCTACGACGGGATT

Substitutions are numbered along the chain they refer to; changes in the protein carry UniProt numbers. Some of the results follow.

The target of this experiment is T1, RBFOX1 RRM (Homo sapiens, UniProt Q9NWB1 109-208).
T1 sequence: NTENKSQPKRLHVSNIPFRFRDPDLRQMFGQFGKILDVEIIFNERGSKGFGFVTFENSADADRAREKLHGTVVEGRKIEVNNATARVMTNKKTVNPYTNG
Briefly: EMSA; HiTS-Eq, 1 nM pool, 10 min; buffer printed only for the single-RNA assays: 10 mM Tris pH 7.5, 150 mM NaCl, 3.4 mM EDTA, 0.001% NP-40, 30 C. The settings on record: tags: His6 N-terminal (pET28a); label: 5' 32P. Summed up: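 Purified RbFox RRM, wild type or mutant, was incubated for 10 min in 50 µL with 1 nM of a 5′-radiolabelled RNA pool carrying 7 randomized nucleotides, whose flanks were annealed to DNA oligonucleotides, over a series of increasing protein concentrations. Unbound RNA was resolved on 8% native PAGE, cut out, reverse-transcribed, barcoded by PCR and sequenced on an Illumina HiSeq 2500. Relative association constants were derived from changes in read counts for each RNA species versus the control reaction and normalised to the cognate motif.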
Background: A gel shift assay detects complexes by their altered migration in electrophoresis.
Regarding B1, the binding signal is 0.0102 KA relative to UGCAUGU.
For B2, the binding signal is 0.00705 KA relative to UGCAUGU.
To B3 belongs 0.00296 KA relative to UGCAUGU.
Under B4 stands 0.00763 KA relative to UGCAUGU; under B5, 0.00258 KA relative to UGCAUGU.
In the case of B6, the binding signal was 0.00539 KA relative to UGCAUGU.
For B7, the binding signal was 0.0163 KA relative to UGCAUGU.
To B8 belongs 0.0205 KA relative to UGCAUGU; to B9, 0.00101 KA relative to UGCAUGU; to B10, 0.0161 KA relative to UGCAUGU.
Turning to B11, the binding signal was 0.0106 KA relative to UGCAUGU.
To B12 belongs 0.0185 KA relative to UGCAUGU.
With B13, the binding signal was 0.0157 KA relative to UGCAUGU.
For B14, the binding signal is 0.00767 KA relative to UGCAUGU.
Consider B15, for which the binding signal is 0.00168 KA relative to UGCAUGU.
Regarding B16, the binding signal is 0.00547 KA relative to UGCAUGU.
To B17 belongs 0.0137 KA relative to UGCAUGU; to B18, 0.00905 KA relative to UGCAUGU.
Turning to B19, the binding signal was 0.00141 KA relative to UGCAUGU.
Under B20 stands 0.0258 KA relative to UGCAUGU.

The values above are taken from PMC9911399, “Two distinct binding modes provide the RNA-binding protein RbFox with extraordinary sequence specificity”.
